# Results from a collection of fitness landscapes (doi:10.1126/science.1257360).
# This is one part of the list.
# B1: PhoQ; a variant is named by its letters at X, in order, P23837 (parent)
# chain: MKKLLRLFFPLSLRVRFLLATAAVVLVLSLAYGMVALIGYSVSFDKTTFRLLRGESNLFYTLAKWENNKLHVELPENIDKQSPTMTLIYDENGQLLWAQRDVPWLMKMIQPDWLKSNGFHEIEADVNDTSLLLSGDHSIQQQLQEVREDDDDAEMTHSVAVNVYPATSRMPKLTIVVVDTIPVELKSSYMVWSWFIYVLSANLLLVIPLLWVAAWWSLRPIEALAKEVRELEEHNRELLNPATTRELTSLVRNLNRLLKSERERYDKYRTTLTDLTHSLKTPLXXLQXXLRSLRSEKMSVSDAEPVMLEQISRISQQIGYYLHRASMRGGTLLSRELHPVAPLLDNLTSALNKVYQRKGVNISLDISPEISFVGEQNDFVEVMGNVLDNACKYCLEFVEISARQTDEHLYIVVEDDGPGIPLSKREVIFDRGQRVDTLRPGQGVGLAVAREITEQYEGKIVAGESMLGGARMEVIFGRQHSAPKDE
# Variants of: B1
# Test: enrichment ratio after two sorts for PhoP signalling (ratio (wild type AVST 3.29)); higher = more functional
# Settings: with PhoP (E. coli)
row,Variant,enrichment ratio
1,KCAP,≤ 0.25
2,LIHW,≤ 0.25
3,AELM,2.01
4,TEFS,10.9
5,FFQT,≤ 0.25
6,FPQG,≤ 0.25
7,KDPR,≤ 0.25
8,PDSE,≤ 0.25
9,TCCG,3.92
10,MYIC,≤ 0.25
11,FLNG,≤ 0.25
12,WDFN,≤ 0.25
13,GSDD,≤ 0.25
14,HDYD,≤ 0.25
15,FCTT,≤ 0.25
16,VNGQ,≤ 0.25
17,NEDR,≤ 0.25
18,GWVW,≤ 0.25
19,RSSM,≤ 0.25
20,SMHT,≤ 0.25
21,SCVM,8.76
22,SIQG,7.09

row,Variant,enrichment ratio
1,NATE,≤ 0.25
2,EYSY,≤ 0.25
3,FGAH,≤ 0.25
4,EPRP,≤ 0.25
5,NQEH,≤ 0.25
6,WHRF,≤ 0.25
7,QECF,≤ 0.25
8,PKNA,≤ 0.25
9,EYFF,≤ 0.25
10,TLYV,0.293
11,KHAY,≤ 0.25
12,YRIC,≤ 0.25
13,KRNP,≤ 0.25
14,MTTM,18.5
15,QAHH,≤ 0.25
16,YAHR,≤ 0.25
17,PMDF,≤ 0.25
18,QQWG,≤ 0.25
19,EIGC,≤ 0.25
20,DYQI,≤ 0.25
21,TGVW,≤ 0.25
22,IPVL,≤ 0.25

row,Variant,enrichment ratio
1,WCSW,≤ 0.25
2,NEIC,≤ 0.25
3,RAIG,≤ 0.25
4,WYTK,≤ 0.25
5,PNNI,≤ 0.25
6,HDCP,≤ 0.25
7,YHED,≤ 0.25
8,ETSN,≤ 0.25
9,GSIY,2.3
10,YTCQ,1.7
11,SMRV,≤ 0.25
12,GNCD,≤ 0.25
13,MQYQ,3.6
14,PHSW,≤ 0.25
15,GPIY,≤ 0.25
16,CGHF,≤ 0.25
17,IQVE,≤ 0.25
18,WQFD,≤ 0.25
19,MQYM,≤ 0.25
20,PTVT,≤ 0.25
21,KCCG,≤ 0.25
22,QECE,≤ 0.25

row,Variant,enrichment ratio
1,PPHS,≤ 0.25
2,PVQT,≤ 0.25
3,EFFV,≤ 0.25
4,EGGS,1.42
5,LHHP,≤ 0.25
6,DPAE,≤ 0.25
7,VFSY,≤ 0.25
8,PSHA,≤ 0.25
9,ATNG,≤ 0.25
10,DCRF,≤ 0.25
11,RNLH,≤ 0.25
12,WFKM,≤ 0.25
13,ECWF,≤ 0.25
14,KIVR,≤ 0.25
15,GFAG,≤ 0.25
16,CQPP,≤ 0.25
17,NPPD,≤ 0.25
18,WWSV,≤ 0.25
19,LMAC,≤ 0.25
20,YSMW,≤ 0.25
21,TSKD,≤ 0.25
22,RNNG,≤ 0.25

row,Variant,enrichment ratio
1,SLLC,7.49
2,LKIQ,≤ 0.25
3,IPKS,≤ 0.25
4,ENVF,≤ 0.25
5,LQES,≤ 0.25
6,FNCH,≤ 0.25
7,MKNV,≤ 0.25
8,WARH,≤ 0.25
9,GRPY,≤ 0.25
10,PKQT,≤ 0.25
11,GCFI,≤ 0.25
12,WCKA,≤ 0.25
13,QAHE,≤ 0.25
14,WCPI,≤ 0.25
15,QEYE,0.253
16,MPGA,≤ 0.25
17,QSVH,2.88
18,FWHR,≤ 0.25
19,ELSN,≤ 0.25
20,DGKC,≤ 0.25
21,ISCK,≤ 0.25
22,QMYH,≤ 0.25
